Measured values reported in publication PMC9640623, “SAMHD1 deacetylation by SIRT1 promotes DNA end resection by facilitating DNA binding at double-strand breaks” (Nature Communications, 2021).

Target: the molecule itself
Assay: SEC; 5 μM SAMHD1 preincubated with 3 mM dGTP; analytical Superdex 200 (10 × 300 mm), 0.5 mL/min; 20 mM Tris-HCl pH 7.8, 50 mM NaCl, 10 μM dGTP, 5 mM MgCl2, 5% glycerol; dGTP-induced tetramer

Protein | stoichiometry N
6xHis-SAMHD1 K354R (natural protein, SAMHD1, full-length, from pET14b-6xHis-SAMHD1 by site-directed mutagenesis; Tetramer only stated after preincubation with dGTP; source: E. coli BL21 Rosetta, purified (His-Trap, Superdex 200 SEC); not shown: His6, N-terminal, kept) not shown | 4
6xHis-SAMHD1 K354Q (natural protein, SAMHD1, full-length, from pET14b-6xHis-SAMHD1 by site-directed mutagenesis; acetyl mimic; Tetramer only stated after preincubation with dGTP; source: E. coli BL21 Rosetta, purified (His-Trap, Superdex 200 SEC); not shown: His6, N-terminal, kept) not shown | 4
